Experimental data: PMC6919601, “Identification of Plasmodium dipeptidyl aminopeptidase allosteric inhibitors by high throughput screening” (PLoS ONE, 2019)
Out of some 110,000 compounds screened, about 230 (0.21%) showed an effect of 50% or more. Some of the results follow.

Each compound was assayed against DPAP1 (Plasmodium falciparum, UniProt Q8IIJ9) (assay: primary screen, percent inhibition; read by cleavage of a fluorogenic dipeptide substrate; higher = more effect of the substance).
Set-up: species or system P. falciparum D10 trophozoite lysates; single well
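Note: 30 min substrate incubation versus DMSO and 10 µM JCP410 controls.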

Sequence of DPAP1 (Q8IIJ9 whole entry, looked up): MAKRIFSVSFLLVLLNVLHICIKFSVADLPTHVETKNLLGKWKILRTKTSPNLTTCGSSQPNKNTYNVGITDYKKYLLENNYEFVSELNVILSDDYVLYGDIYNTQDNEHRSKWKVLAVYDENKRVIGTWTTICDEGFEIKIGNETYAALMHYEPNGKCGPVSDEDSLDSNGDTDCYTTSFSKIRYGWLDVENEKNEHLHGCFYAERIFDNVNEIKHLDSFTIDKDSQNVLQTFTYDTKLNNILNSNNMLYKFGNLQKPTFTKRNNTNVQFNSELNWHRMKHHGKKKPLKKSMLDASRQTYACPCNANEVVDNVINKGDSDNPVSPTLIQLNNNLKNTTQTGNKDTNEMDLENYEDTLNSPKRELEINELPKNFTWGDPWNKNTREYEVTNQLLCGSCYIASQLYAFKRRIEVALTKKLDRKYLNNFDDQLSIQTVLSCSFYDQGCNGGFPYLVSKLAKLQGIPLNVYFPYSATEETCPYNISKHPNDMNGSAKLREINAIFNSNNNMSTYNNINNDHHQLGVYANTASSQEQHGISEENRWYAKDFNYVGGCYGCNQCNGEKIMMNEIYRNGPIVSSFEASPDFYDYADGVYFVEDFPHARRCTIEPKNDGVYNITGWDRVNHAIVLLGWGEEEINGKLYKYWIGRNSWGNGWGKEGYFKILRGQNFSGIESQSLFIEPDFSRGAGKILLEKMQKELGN

Point of comparison: `Cc1c(C(=O)NCc2cccnc2)sc2ncn(CC(=O)N3CCCCC3C)c(=O)c12` (stereo not drawn), “% Inhibition @ 10 uM” value -2.17%. Against it:
- COc1ccc(OCCSCc2nnc(NC(=O)C(=O)c3c[nH]c4ccccc34)s2)cc1 — higher, 2.11%
- CCc1ccccc1NC(=O)CN(c1ccc(C)c(C)c1)S(C)(=O)=O — higher, 0.189%
- Oc1ccc(CN2CCOCC2)cc1 — higher, -0.603%
- Cc1ccc(NC(=O)COc2cccc(C3C4=C(O)CCCC4=NC4=C3C(=O)CCC4)c2)cc1Cl (stereo not drawn) — higher, 4.7%
- COc1cc(-c2noc(CCC(=O)NCc3ccco3)n2)cc(OC)c1OC — higher, 3.62%
- O=C(Cc1c(C(=O)O)[nH]c2ccccc12)NCCN1CCOCC1 — higher, 2.83%
- COCCNC(=O)c1cc2cc3ccc(C)cc3nc2s1 — higher, 0.675%
- Cc1ccc(S(=O)(=O)c2ccc(Cl)cc2)cc1 — lower, -6.68%
- CN(C(=O)Cn1c(SCc2ccccc2F)nc2ccncc21)C1CCCCC1 — higher, 2.65%
- COc1cccc(C2NC(=O)NC(C)=C2C(=O)Nc2ccccc2OC)c1 (stereo not drawn) — lower, -7.1%
- O=C(CCN1C(=O)c2ccccc2C1=O)Nc1ccc(Cl)cc1 — lower, -5.62%
- CCC(C#CCN1CCCCC1)(CC)OC(C)=O — higher, 5.68%
- CCOC(=O)N1CCN(C(=O)c2sc3ncnc(N4CCN(c5ccccn5)CC4)c3c2C)CC1 — higher, 0.685%
- COc1cccc2c1OC13CCCC1C2/C(=C(O)\C=C\c1ccc(OC)c(OC)c1OC)C(=O)N3C (stereo not drawn) — higher, 1.16%
- Cc1ccc2cccc(O)c2n1 — higher, 5.01%
- Cn1c(=O)c2c(nc(Oc3ccc4c(c3)OCO4)n2Cc2ccccc2)n(C)c1=O — lower, -3.87%
- CC1CCN(S(=O)(=O)N2CCC(C(=O)NCCc3ccc(Cl)cc3)CC2)CC1 — higher, -1.34%
- CCCC(=O)Nc1ccc(S(=O)(=O)Nc2ccc(C)c(C)c2)cc1 — higher, 1.05%
- NC1=NC(c2ccc(OCC(=O)O)cc2)n2c(nc3ccccc32)N1 (stereo not drawn) — lower, -3.53%
- Cc1c(C(=O)N(Cc2cccs2)C2CCS(=O)(=O)C2)oc2ccccc12 (stereo not drawn) — higher, 0.413%
- COC(=O)C1=C(C)NC(=O)NC1c1ccc(O)cc1 (stereo not drawn) — higher, 5.5%
- Cc1ccc(C(C)C)c(OCC(=O)NCc2ccco2)c1 — lower, -8.3%
- CCc1nn(CC(=O)NCCCN(Cc2ccccc2)C(C)C)c(=O)c2cc3sccc3n12 — higher, -1.58%
- CCC(C)c1ccccc1OCC(=O)Nc1ccc(C)cc1C(=O)O (stereo not drawn) — higher, -1.65%
- Cc1ccc(C(=O)NCc2ccco2)cc1S(=O)(=O)N1CCOCC1 — lower, -6.37%
- Cc1cccc(NC(=O)/C=C/c2ccc3c(c2)OCO3)c1 — higher, 2.94%
- Cc1ccsc1CN1CCN(CCOCCO)CC1 — higher, 1.87%
- Cc1nn(-c2ccc(Cl)nn2)c(=O)c2ccccc12 — lower, -11.3%
- COc1ccc(C(=O)c2c[nH]cn2)cc1OC — higher, 4.61%
- Cc1sc(NC(=O)c2ccccc2F)c(CN2CCCCC2)c1C — lower, -2.85%
- CCOC(=O)C1=CN(Cc2ccc(OC)cc2)C=C(C(=O)OCC)C1c1ccc(C(F)(F)F)cc1 — higher, 1.86%
- CC(C)(C)c1[nH]nc2c1C(c1ccccc1F)C(C#N)=C(N)O2 (stereo not drawn) — higher, 1.37%
- Cc1ccc(NS(=O)(=O)c2ccc(NC(=O)c3ccccc3C(=O)O)cc2)c(C)c1 — higher, 4.11%
- Cc1ccc(-c2nn(Cc3cc(=O)n4ccccc4n3)c(=O)c3c2CCCC3)cc1 — higher, -0.946%
- O=C1C2C3C=CC(CO)(O3)C2C(=O)N1c1cc(C(F)(F)F)ccc1Cl (stereo not drawn) — higher, 4.78%
- CC(C(=O)Nc1ccc(Cl)cn1)N1Cc2ccccc2C1=O (stereo not drawn) — higher, 4.6%
- CC(C)Cn1cnc2oc(-c3ccccc3)c(-c3ccccc3)c2c1=N — higher, -1.6%
- Oc1nc(S)nc(O)c1C(c1ccc(F)cc1)N1CCCCC1 (stereo not drawn) — lower, -3.41%
- Cc1cccc(Cn2nc(Cc3cccnc3)c3ccccc3c2=O)c1 — higher, 1.39%
- C/C(=C\c1ccccc1)CN1CCCCC1CO (stereo not drawn) — lower, -2.95%
- COc1ccc(OC)c(S(=O)(=O)c2ccc(Cl)c(Cl)c2)c1 — lower, -3.93%
- Clc1cccc(N2CCN(C3C4CC5CC(C4)CC3C5)CC2)c1 (stereo not drawn) — higher, 3.44%
- CN(c1ccc(C(=O)N2CCN(Cc3ccccc3)CC2)cc1)S(C)(=O)=O — lower, -3.03%
- COc1ccc(S(=O)(=O)Cc2ccc(C(=O)NCCCN3CCc4ccccc4C3)o2)cc1 — higher, 25.9%
- CCc1cccc2c1NC(=O)/C2=C1\SC(Nc2cccc(Cl)c2)=NC1=O — higher, -0.641%
- CC1CCCC(C)N1CCCNC(=O)CN1C(=O)CSc2ncccc21 (stereo not drawn) — lower, -6.24%
- O=C(O)CCCC[C@@H]1SCC2(O)NC(=O)N[C@@H]12 (stereo partly drawn) — lower, -3.52%
- CCOC(=O)c1c(C)n(C)c2ccc(O)c(CN3CCC(C)CC3)c12 — higher, 3.04%
- O=C(Cn1ncc2c3ccccc3n(Cc3ccccc3F)c2c1=O)NCc1cccnc1 — higher, 3.4%
- Cc1nn(C)c(C)c1CN(C)C(=O)c1cnn2c(C(F)(F)F)cc(-c3ccccc3)nc12 — lower, -3.87%
